Experimental findings from the supplement of paper PMC4604168 (melanoma cell lines) are described below.

Some of the results follow. Repeats are few or missing, and single values can be far off.
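Note: cell number obtained by counting DAPI-stained nuclei in high-throughput microscope images with image analysis software, screen run in 1,536-well plates.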

The subject of this assay is WM451Lu. As to the kind of experiment: cell count relative to DMSO control; melanoma cells; higher = more viable cells. As to conditions: library dose: low library concentration; 72 h.
`O=C1NC(=O)/C(=C/c2ccc(-c3ccc(F)cc3O)o2)S1` + O=C(Oc1ccc([N+](=O)[O-])cc1)N1CCC(C(O)(c2ccc3c(c2)OCO3)c2ccc3c(c2)OCO3)CC1 [JZL184] (first compound 1 µM, partner dose 1 µM) displayed a cell count of 114%.

Regarding `O=C(O)c1ccc2c(c1)nc(Nc1cccc(Cl)c1)c1ccncc12` + C[As](C)SC[C@H](NC(=O)CC[C@H](N)C(=O)O)C(=O)NCC(=O)O [Darinaparsin] (first compound 0.4 µM, partner dose 0.4 µM), the cell count stood at 86%. As to `CN1CCN(c2ccc3nc(-c4c(N)c5c(F)cccc5[nH]c4=O)[nH]c3c2)CC1` [Dovitinib] + C/C(O)=C(\C#N)C(=O)Nc1cc(Br)ccc1Br [LFM-A13] (first compound 0.1 µM, partner dose 2 µM), the cell count was 116%. Then `O=C(O)c1ccc2c(c1)nc(Nc1cccc(Cl)c1)c1ccncc12` + Cc1cc(SCc2sc(-c3ccc(C(F)(F)F)c(F)c3)nc2C)ccc1OCC(=O)O [GW0742] (first compound 0.4 µM, partner dose 2 µM), with 111%; and `CN1CCN(c2ccc3nc(-c4c(N)c5c(F)cccc5[nH]c4=O)[nH]c3c2)CC1` [Dovitinib] + C[As](C)SC[C@H](NC(=O)CC[C@H](N)C(=O)O)C(=O)NCC(=O)O [Darinaparsin] (first compound 0.1 µM, partner dose 0.4 µM), with 99.5%; and `Cc1cc(Nc2cc(N3CCN(C)CC3)nc(Sc3ccc(NC(=O)C4CC4)cc3)n2)n[nH]1` [Tozasertib] + N.N.[Cl][Pt][Cl] [cisplatin] (first compound 0.006 µM, partner dose 1.6 µM), with 90.9%. In turn, `CN1CCN(c2ccc3nc(-c4c(N)c5c(F)cccc5[nH]c4=O)[nH]c3c2)CC1` [Dovitinib] + O=C(Oc1ccc([N+](=O)[O-])cc1)N1CCC(C(O)(c2ccc3c(c2)OCO3)c2ccc3c(c2)OCO3)CC1 [JZL184] (first compound 0.1 µM, partner dose 1 µM) had a cell count of 102%. As to `Clc1ccc(Nc2nnc(Cc3ccncc3)c3ccccc23)cc1` [vatalanib] + C/C(O)=C(\C#N)C(=O)Nc1cc(Br)ccc1Br [LFM-A13] (first compound 2 µM, partner dose 2 µM), the cell count was 113%.

For the compound `CC(C)C[C@H](NC(=O)[C@H](Cc1ccccc1)NC(=O)c1cnccn1)B(O)O` [Bortezomib] + C[As](C)SC[C@H](NC(=O)CC[C@H](N)C(=O)O)C(=O)NCC(=O)O [Darinaparsin] (first compound 0.001 µM, partner dose 0.4 µM), the cell count is 120%. Then `Cc1cc([N+](=O)[O-])ccc1NS(=O)(=O)c1cc(Cl)ccc1Cl` + O=C(Oc1ccc([N+](=O)[O-])cc1)N1CCC(C(O)(c2ccc3c(c2)OCO3)c2ccc3c(c2)OCO3)CC1 [JZL184] (first compound 1 µM, partner dose 1 µM), with 94.4%. As for `Cc1cc(Nc2cc(N3CCN(C)CC3)nc(Sc3ccc(NC(=O)C4CC4)cc3)n2)n[nH]1` [Tozasertib] + Cn1cc(C2=C(c3cn(C4CCN(Cc5ccccn5)CC4)c4ccccc34)C(=O)NC2=O)c2ccccc21 [Enzastaurin] (first compound 0.006 µM, partner dose 0.8 µM), the cell count came to 96.6%. With `Cc1cc(Nc2cc(N3CCN(C)CC3)nc(Sc3ccc(NC(=O)C4CC4)cc3)n2)n[nH]1` [Tozasertib] + O=C(Oc1ccc([N+](=O)[O-])cc1)N1CCC(C(O)(c2ccc3c(c2)OCO3)c2ccc3c(c2)OCO3)CC1 [JZL184] (first compound 0.006 µM, partner dose 1 µM), the cell count is 90.3%. Compound `Oc1cc(-c2nc(-c3ccccc3)[nH]c2-c2ccncc2)ccc1Cl` + C/C(O)=C(\C#N)C(=O)Nc1cc(Br)ccc1Br [LFM-A13] (first compound 0.2 µM, partner dose 2 µM) registered a cell count of 99.2%. Turning to `O=C(O)C(=O)Nc1sc2c(c1C(=O)O)CCNC2` + O=C(Oc1ccc([N+](=O)[O-])cc1)N1CCC(C(O)(c2ccc3c(c2)OCO3)c2ccc3c(c2)OCO3)CC1 [JZL184] (first compound 1.66667 µM, partner dose 1 µM), the cell count was found to be 95.7%.

As for `C#Cc1cccc(Nc2ncnc3cc(OCCOC)c(OCCOC)cc23)c1` [erlotinib] + C[As](C)SC[C@H](NC(=O)CC[C@H](N)C(=O)O)C(=O)NCC(=O)O [Darinaparsin] (first compound 0.8 µM, partner dose 0.4 µM), the cell count is 95.4%.
